Among all 150,000 compounds or so, about 540 (0.36%) showed an effect of 50% or more. The list shows a part of the results.

By % Inhibition is commonly meant the change of the read-out against control, counted positive when it falls.

This experiment deals with Plasmodium falciparum. Kind of experiment: Primary screen in NF54 nanoGlo assay, in single point, at 2uM, 72h; a lower Z score goes with more inhibition. The experiment is classed as functional, Erythrocyte. The following applies: timepoint 72 hour.
For the compound `COc1ccc(N2C(=O)c3ccccc3N[C@]23C(=O)N(C)c2ccccc23)cc1`, the “% Inhibition” value is given as -6% and the Z score was determined as 0.72.
On to `Cc1ncn(C)c1C(=O)N1CC[C@H](C(C)(C)O)C1`, for which the “% Inhibition” value amounted to 4% and the Z score is -0.7.
Taken in the same sequence, the figures for `C[C@H]1CCCN(C(=O)c2nc[nH]c2C(=O)NC2CCCCC2)C1` were 15% and -1.79.
Taken in the same sequence, the figures for `CC(C)N1CCN(C(=O)c2ccc(-c3ccc4c(cnn4C)c3)cc2)CC1` were 14% and -1.86.
As to `C[C@H](C(=O)Nc1ccc(F)cc1F)C1CCN(C(=O)Nc2ccccc2)CC1`, the “% Inhibition” value is listed as 0% and the Z score is given as 0.08.
On to `CCOc1cc2cc(c1)C(=O)N(C)CC(=O)N[C@@H]1CN(C(=O)c3cc(CC(C)C)on3)CC[C@@H]1OCc1cccc(c1)O2`, for which the “% Inhibition” value was determined as 11% and the Z score is listed as -1.47.
`O=C(N1CC[C@H](N2CCc3ccccc3C2)C1)C1(c2ccccc2)CCOCC1`: the “% Inhibition” value was 3% and the Z score is listed as -0.43.
Turning to `CC(C)Cn1ccc(C(=O)N[C@H](c2ccncc2)C2CC2)n1`, the “% Inhibition” value is on record as -5% and the Z score was 0.56.
Taken in the same sequence, the figures for `Cc1nc(CN2C[C@@H](CC(C)C)CC2=O)n(C)n1` were -21% and 2.07.
Taken in the same sequence, the figures for `O=C(c1ccc(F)c(F)c1)N1CCC2(CCC(O)CC2)CC1` were 33% and -3.77.
Taken in the same sequence, the figures for `COCC(=O)N(CC(=O)N1CCc2sccc2C1COc1ccccc1C)CC1CCCO1` (configuration not stated) were -3% and 0.41.
Turning to `CC1CCCCC1NC(=O)C(c1ccc(Cl)cc1Cl)N1CCOCC1` (configuration not stated), the “% Inhibition” value is 0% and the Z score was -0.05.
For the compound `CC(C)C(NC(=O)C1CCN(C)C(=O)C1)c1ccc(F)cc1` (configuration not stated), the “% Inhibition” value is given as -5% and the Z score was 0.74.
Taken in the same sequence, the figures for `O=C(NC[C@@H](c1cccnc1)N1CCCCC1)c1cnc(-c2ccncc2)nc1` were -1% and 0.2.
In the case of `C[C@H]1CCC(=O)N1c1cccc(NC(=O)NCCc2cn[nH]c2)c1`, the “% Inhibition” value is given as -3% and the Z score turned out to be 0.68.
Taken in the same sequence, the figures for `Cc1cc(CC(=O)NCCCc2nnc3ccccn23)on1` were -19% and 2.38.
Taken in the same sequence, the figures for `CNc1cc(C(=O)N2CCn3nc(CCC(=O)NC4CC4)cc3C2)ccn1` were -14% and 2.19.
Taken in the same sequence, the figures for `COc1ccc(N(C)S(=O)(=O)c2cc3c(cc2Cl)Oc2cc(C)ccc2NC3=O)cc1` were -10% and 1.4.
On to `N#CCC1(O)CN(Cc2cc(F)cc(F)c2)C1`, for which the “% Inhibition” value is reported as 4% and the Z score was -0.63.
With `CCC(=O)Nc1ccc(N2CCN(C(=O)NC(C)C)CC2)c(C(=O)N2CCCCC2)c1`, the “% Inhibition” value is on record as -4% and the Z score was found to be 0.65.
Taken in the same sequence, the figures for `C[C@@H]1CNCCN1C(=O)NCc1ccc2c(n1)CCCC2` were 1% and -0.06.
`Oc1cccnc1CN1CCOC[C@H]1c1nc[nH]n1`: the “% Inhibition” value was -4% and the Z score is on record as 0.72.
Taken in the same sequence, the figures for `COc1ccc(C(=O)N2CCC[C@@]3(C2)NC(=O)N(Cc2ccc(C)cc2)C3=O)cc1` were 11% and -1.39.
As to `COc1ccc(F)c(F)c1CN1CCN(c2ccnc3nncn23)CC1`, the “% Inhibition” value is on record as -1% and the Z score was found to be 0.18.
Taken in the same sequence, the figures for `COC(CN1CCNC(=O)[C@@H]1c1ccc(F)cc1C)OC` were -10% and 1.6.
Take `Cc1[nH]c2ccccc2c1C(c1ccc2c(c1)OCO2)c1c(C)[nH]c2ccccc12`: the “% Inhibition” value came to 34% and the Z score was -3.85.
With `COCCc1nc([C@@H](N)Cc2ccc(OC)cc2)n(C2CCCCC2)n1`, the “% Inhibition” value is given as -2% and the Z score was 0.28.
Taken in the same sequence, the figures for `CC(C)(C)NCC(=O)Nc1cc(F)cc(F)c1` were -10% and 1.62.
With `Cc1cc(C)c(CN2CCN(C)CC2)cc1CN(C)Cc1nccs1`, the “% Inhibition” value is recorded as -11% and the Z score is listed as 1.99.
Taken in the same sequence, the figures for `COC[C@H]1CCCN(C(=O)Cc2ccc3[nH]c(=O)[nH]c3c2)CC1` were -7% and 1.29.
Taken in the same sequence, the figures for `COCCNC(=O)c1cc2n(n1)C[C@@](C)(C(=O)NCc1ccc(F)cc1)N(C)C2=O` were 14% and -1.62.
Taken in the same sequence, the figures for `Cc1cc(C)n([C@@H](C)CNC(=O)Nc2ccc3c(c2)C(=O)N(C2CC2)C3=O)n1` were -7% and 0.94.
`CC(=O)Nc1ccc(-c2cc(C(=O)N3CCN(C4CCCCC4)CC3)c3cc(C)ccc3n2)cc1`: the “% Inhibition” value is listed as 7% and the Z score was -0.85.
Taken in the same sequence, the figures for `COC(=O)C(C)(C)NS(=O)(=O)c1ccc(OC)c(Cl)c1` were -14% and 2.27.
Taken in the same sequence, the figures for `COc1ccc(Oc2nc(N3CCC(C)CC3)nc3c2CN(C(=O)Cc2ccc(F)cc2)CC3)cc1` were -5% and 0.66.
On to `COc1nc(N(C)CC2(CO)CCC2)ncc1F`, for which the “% Inhibition” value is on record as -5% and the Z score was found to be 0.7.
Taken in the same sequence, the figures for `CCC(C(=O)N1C2CCC1CC(n1ccnc1)C2)c1ccccc1` (configuration not stated) were 8% and -1.03.
`C[C@@H]1COCCN(C(=O)c2ccnc(OC(F)F)c2)C1`: the “% Inhibition” value is on record as 7% and the Z score is reported as -0.88.
For the compound `CC1CCN(Cc2ccccc2)CC1NS(=O)(=O)c1c(C2CC2)cnn1C` (configuration not stated), the “% Inhibition” value is recorded as -3% and the Z score is reported as 0.26.
Taken in the same sequence, the figures for `CC(=O)Nc1c(-c2ccc(F)cc2)c(C)nn1-c1ccc(C(=O)Nc2nc(C)cs2)cc1` were -1% and 0.19.
Taken in the same sequence, the figures for `CCN(Cc1nc(C(C)C)no1)S(=O)(=O)c1ccc(O)c(C(=O)O)c1` were -6% and 0.86.

Source of the values: ChEMBL document CHEMBL4888484, “Replenishing the malaria drug discovery pipeline: Screening and hit evaluation of the MMV Hit Generation Library 1 (HGL1) against asexual blood stage Plasmodium falciparum ,using a nano luciferase reporter read-out” (2022).
